Test results from PubChem BioAssay (NCATS).
The shares of active, inactive and inconclusive entries below differ from those in the screen. For part of these data: A potency beside an inconclusive call is a rough fit, not a confirmed value. Calls of active or inactive are those of the source. The call rests on the fitted dose curve; in most records, active means well fitted curve in the direction sought with a large enough effect; inconclusive means small, poorly fitted or top-dose-only effect, or another doubt; inactive means no such curve, though single readings can be large; an effect the other way counts as inactive or inconclusive.

Columns and labels:
[1] = target: Endonuclease 4 (Escherichia coli (strain K12)) (UniProt P0A6C1); assay: Counterscreen for APE1 Inhibitors: qHTS Assay for Inhibitors of Endonuclease IV (AID 2565)
Method in brief: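 Measured as reaction progress, the fluorescence gain between first and third kinetic reads after adding 50 nM TAMRA/BHQ-2 THF duplex to 2 nM enzyme preincubated 15 min with compound; 2 mM MgCl2, pH 7.5.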

[2] = target: DNA repair nuclease/redox regulator APEX1 (Homo sapiens) (UniProt P27695); assay: qHTS FP-Based Assay for Inhibitors of the Human Apurinic/apyrimidinic Endonuclease 1 (APE1) (AID 2573)
[3] = target: DNA repair nuclease/redox regulator APEX1 (Homo sapiens) (UniProt P27695); assay: Confirmation qHTS Assay for Inhibitors of the Human Apurinic/apyrimidinic Endonuclease 1 (APE1) (AID 2572); further: nearly all actives have a fitted effect of over 30% in size
Method in brief: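 APE1 endonuclease activity was assessed as fluorescence released when the enzyme nicked a quenched abasic-site duplex (50 nM final). Compounds were preincubated with enzyme 15 min at room temperature before substrate addition.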

[4] = target: Tumor susceptibility gene 101 protein (Homo sapiens) (UniProt Q99816); assay: qHTS Assay for Iinhibitors of HIV-1 Budding by Blocking the Interaction of PTAP/TSG101: Hit Validation (AID 651600); further: nearly all actives have a fitted effect of over 70% in size
Method in brief: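 Fluorescence polarization binding assay: Tsg101 binding domain (10 uM) mixed with compounds and FITC-labeled PTAP peptide (50 nM) in HEPES pH 7.5, 0.15 M NaCl, 0.01% Tween 20, EDTA, TCEP; 20 min at r.t.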

[5] = target: Tyrosyl-DNA phosphodiesterase 1 (Homo sapiens) (UniProt Q9NUW8); assay: Confirmation Assay for Inhibitors of Tyrosyl-DNA Phosphodiesterase (TDP1) (AID 489007); conditions: recombinant human TDP1 enzymatic activity, dose-response; further: nearly all actives have a fitted effect of over 40% in size
Method in brief: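 Loss of AlphaScreen signal reports Tdp1 cleavage of a dual-labelled DNA substrate. Conditions: 1 nM E. coli-derived enzyme, 15 nM substrate, 15 min compound preincubation, 5 min reaction, 10 min bead incubation, all at room temperature.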

[6] = target: DNA polymerase eta (Homo sapiens) (UniProt Q9Y253); assay: qHTS for Inhibitors of Polymerase Eta: Confirmatory Assay for Cherry-picked Compounds (AID 720502); conditions: Pol eta primer extension, TAMRA/BHQ fluorescence, 10 min
Method in brief: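 Human Pol eta at 10 nM was preincubated with compound for 15 min at room temperature. Reaction was started with TAMRA/BHQ-2-labelled primer-template substrate (50 nM final), with fluorescence read at 0 and 10 min (ex 525, em 598 nm).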

[7] = Counterscreen for APE1 Inhibitors: Fluorescent Dye Displacement Assay (AID 2564);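 further: loss of thiazole orange fluorescence as the dye is displaced from duplex DNA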
Method in brief: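 Signal: ThO fluorescence (ex 480 nm/em 540 nm) on binding 50 nM dsDNA; displacement by test compound reduces it. Conditions: 250 nM dye, 50 mM Tris-HCl pH7.5, 2 mM MgCl2, 50mM NaCl, 0.01% Tween-20.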

[8] = qHTS for Inhibitors of WRN Helicase: Thiazole Orange DNA Binding Counterscreen (AID 720499);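 further: drop in dye fluorescence marks compound binding to DNA; nearly all actives have a fitted effect of over 60% in size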
Method in brief: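 Counterscreen to remove nonspecific DNA binders from WRN helicase hits. Compounds were incubated 15 min at room temperature with 50 nM DNA and 100 nM ThO, then fluorescence was recorded (480 nm excitation, 530 nm emission).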

[9] = target: Fructose-bisphosphate aldolase (Giardia intestinalis (strain ATCC 50803 / WB clone C6)) (UniProt A8B2U2); assay: qHTS Assay for Inhibitors of Fructose-1,6-bisphosphate Aldolase from Giardia Lamblia: Primary screen confirmation (AID 2787); further: nearly all actives have a fitted effect of over 45% in size
Method in brief: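 FBPA (40 nM in enzyme reagent, with 30 uM ZnCl2) was preincubated 10 min at RT with compound up to 57.5 uM final. Substrate plus coupled detection system was then added, and fluorescence (525/598 nm) was read after 20 min at RT.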

[10] = qHTS Assay for Inhibitors of Fructose-1,6-bisphosphate Aldolase from Giardia Lamblia: Coupling assay counterscreen confirmation (AID 2795); further: nearly all actives have a fitted effect of over 55% in size
Method in brief: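 Coupling-system counterscreen without aldolase: glyceraldehyde-3-phosphate coupling enzymes preincubated 10 min with compound (up to 57.5 uM final), then substrate and AmpLite Red detection added for 20 min at RT. Fluorescence read at 525/598 nm.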

[11] = target: Bifunctional 3'-5' exonuclease/ATP-dependent helicase WRN (Homo sapiens) (UniProt Q14191); assay: qHTS for Inhibitors of WRN Helicase: Confirmatory Assay for Cherry-picked Compounds. (AID 720497); further: nearly all actives have a fitted effect of over 65% in size
Method in brief: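 WRN (20 nM) was preincubated 15 min at RT with compound, then started with 100 nM forked duplex oligonucleotide and 2 mM ATP. Unwinding was read kinetically by red fluorescence (ex 525/em 598 nm), normalized to enzyme-free and uninhibited controls.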
Potency means the concentration at half of the fitted maximal effect; tags describe the fitted curve by direction and shape.

UniProt Q9NUW8, sequence (Q9NUW8 whole entry, looked up): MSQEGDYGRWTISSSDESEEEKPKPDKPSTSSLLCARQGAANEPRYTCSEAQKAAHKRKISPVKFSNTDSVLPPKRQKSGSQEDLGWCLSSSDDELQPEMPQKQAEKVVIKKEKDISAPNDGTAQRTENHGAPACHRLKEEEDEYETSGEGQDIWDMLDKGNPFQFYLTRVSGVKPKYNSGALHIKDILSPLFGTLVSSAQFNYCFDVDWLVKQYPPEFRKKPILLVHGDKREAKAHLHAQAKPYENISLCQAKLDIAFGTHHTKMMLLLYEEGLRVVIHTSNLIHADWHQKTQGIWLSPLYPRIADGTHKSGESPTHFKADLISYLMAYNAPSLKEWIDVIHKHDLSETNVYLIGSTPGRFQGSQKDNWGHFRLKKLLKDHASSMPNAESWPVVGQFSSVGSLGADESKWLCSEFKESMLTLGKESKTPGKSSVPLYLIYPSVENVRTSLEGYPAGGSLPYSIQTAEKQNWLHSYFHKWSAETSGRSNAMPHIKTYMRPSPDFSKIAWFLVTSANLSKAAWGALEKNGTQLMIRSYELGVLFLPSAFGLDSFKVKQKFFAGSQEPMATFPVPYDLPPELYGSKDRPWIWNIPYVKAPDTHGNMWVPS
UniProt P27695, sequence (P27695 whole entry, looked up): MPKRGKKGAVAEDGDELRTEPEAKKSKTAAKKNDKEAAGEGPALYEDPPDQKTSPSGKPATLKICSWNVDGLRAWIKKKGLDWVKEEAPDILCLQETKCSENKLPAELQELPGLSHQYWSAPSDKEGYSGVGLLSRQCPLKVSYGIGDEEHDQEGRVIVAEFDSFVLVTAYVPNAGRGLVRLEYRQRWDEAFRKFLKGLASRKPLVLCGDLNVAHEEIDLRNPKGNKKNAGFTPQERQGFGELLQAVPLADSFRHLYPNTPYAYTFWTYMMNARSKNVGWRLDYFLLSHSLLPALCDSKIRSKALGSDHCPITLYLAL
UniProt Q9Y253, sequence (Q9Y253 whole entry, looked up): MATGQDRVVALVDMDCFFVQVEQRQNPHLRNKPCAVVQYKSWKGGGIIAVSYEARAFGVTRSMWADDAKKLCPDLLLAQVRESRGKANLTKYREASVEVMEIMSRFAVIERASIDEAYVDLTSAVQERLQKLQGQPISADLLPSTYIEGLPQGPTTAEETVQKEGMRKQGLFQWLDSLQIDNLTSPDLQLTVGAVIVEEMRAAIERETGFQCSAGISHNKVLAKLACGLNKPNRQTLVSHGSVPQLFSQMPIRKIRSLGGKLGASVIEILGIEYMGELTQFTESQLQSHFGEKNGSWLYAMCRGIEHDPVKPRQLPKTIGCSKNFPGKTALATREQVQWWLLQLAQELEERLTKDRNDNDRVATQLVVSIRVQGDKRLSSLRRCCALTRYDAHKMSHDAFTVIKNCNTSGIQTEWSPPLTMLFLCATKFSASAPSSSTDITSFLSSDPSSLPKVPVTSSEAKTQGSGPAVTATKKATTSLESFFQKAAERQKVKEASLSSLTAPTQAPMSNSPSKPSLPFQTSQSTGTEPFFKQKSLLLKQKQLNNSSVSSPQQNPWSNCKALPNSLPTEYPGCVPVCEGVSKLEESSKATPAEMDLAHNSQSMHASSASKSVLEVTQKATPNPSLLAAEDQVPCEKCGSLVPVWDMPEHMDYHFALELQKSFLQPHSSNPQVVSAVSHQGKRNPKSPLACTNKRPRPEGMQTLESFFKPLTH
UniProt Q14191, sequence (Q14191 whole entry, looked up): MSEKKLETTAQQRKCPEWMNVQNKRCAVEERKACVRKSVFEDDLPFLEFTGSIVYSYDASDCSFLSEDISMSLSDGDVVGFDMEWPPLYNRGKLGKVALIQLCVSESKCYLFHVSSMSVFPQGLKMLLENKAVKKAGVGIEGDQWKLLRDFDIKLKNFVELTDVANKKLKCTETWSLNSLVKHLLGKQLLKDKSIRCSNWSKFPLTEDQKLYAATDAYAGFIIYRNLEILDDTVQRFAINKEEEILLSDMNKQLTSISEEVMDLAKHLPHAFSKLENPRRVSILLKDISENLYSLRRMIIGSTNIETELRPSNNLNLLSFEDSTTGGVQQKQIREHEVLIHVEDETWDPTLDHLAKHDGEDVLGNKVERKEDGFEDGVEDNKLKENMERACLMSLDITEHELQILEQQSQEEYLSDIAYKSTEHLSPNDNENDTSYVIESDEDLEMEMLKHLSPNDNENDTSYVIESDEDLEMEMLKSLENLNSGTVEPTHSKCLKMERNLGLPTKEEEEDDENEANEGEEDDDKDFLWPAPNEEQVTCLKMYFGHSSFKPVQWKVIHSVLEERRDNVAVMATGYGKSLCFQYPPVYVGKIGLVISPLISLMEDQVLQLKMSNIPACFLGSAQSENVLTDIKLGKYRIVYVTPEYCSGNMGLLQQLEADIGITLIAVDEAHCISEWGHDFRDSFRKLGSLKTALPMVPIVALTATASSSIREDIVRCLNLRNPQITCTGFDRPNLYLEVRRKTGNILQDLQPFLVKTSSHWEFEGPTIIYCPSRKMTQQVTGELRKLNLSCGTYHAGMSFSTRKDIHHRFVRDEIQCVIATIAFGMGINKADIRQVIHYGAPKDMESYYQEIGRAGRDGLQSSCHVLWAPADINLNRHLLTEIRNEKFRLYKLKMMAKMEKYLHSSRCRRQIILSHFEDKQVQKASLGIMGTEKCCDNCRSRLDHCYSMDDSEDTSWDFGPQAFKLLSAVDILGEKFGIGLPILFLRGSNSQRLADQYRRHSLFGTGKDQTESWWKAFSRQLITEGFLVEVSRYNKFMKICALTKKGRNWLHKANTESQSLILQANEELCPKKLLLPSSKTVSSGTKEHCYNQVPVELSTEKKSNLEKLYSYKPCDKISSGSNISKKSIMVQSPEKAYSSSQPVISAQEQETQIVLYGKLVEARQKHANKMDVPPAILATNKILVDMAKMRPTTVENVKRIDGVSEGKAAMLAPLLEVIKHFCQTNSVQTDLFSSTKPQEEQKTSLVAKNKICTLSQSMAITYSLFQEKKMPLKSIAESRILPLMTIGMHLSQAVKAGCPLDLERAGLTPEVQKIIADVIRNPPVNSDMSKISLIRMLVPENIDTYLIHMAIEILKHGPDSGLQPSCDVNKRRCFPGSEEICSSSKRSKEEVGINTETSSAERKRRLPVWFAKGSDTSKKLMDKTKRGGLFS
UniProt Q99816, sequence (Q99816 whole entry, looked up, the tested form may be a part): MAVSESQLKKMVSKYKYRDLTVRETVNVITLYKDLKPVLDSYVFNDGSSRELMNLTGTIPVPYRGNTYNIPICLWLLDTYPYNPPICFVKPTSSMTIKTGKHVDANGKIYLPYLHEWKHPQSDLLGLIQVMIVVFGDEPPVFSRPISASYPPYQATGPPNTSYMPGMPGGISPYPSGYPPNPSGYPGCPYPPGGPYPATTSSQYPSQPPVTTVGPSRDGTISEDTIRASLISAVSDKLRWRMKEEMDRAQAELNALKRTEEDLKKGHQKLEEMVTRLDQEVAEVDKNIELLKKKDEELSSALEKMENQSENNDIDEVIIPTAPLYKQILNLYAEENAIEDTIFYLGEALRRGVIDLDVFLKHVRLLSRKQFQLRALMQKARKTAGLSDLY
UniProt A8B2U2, sequence (A8B2U2 whole entry, looked up): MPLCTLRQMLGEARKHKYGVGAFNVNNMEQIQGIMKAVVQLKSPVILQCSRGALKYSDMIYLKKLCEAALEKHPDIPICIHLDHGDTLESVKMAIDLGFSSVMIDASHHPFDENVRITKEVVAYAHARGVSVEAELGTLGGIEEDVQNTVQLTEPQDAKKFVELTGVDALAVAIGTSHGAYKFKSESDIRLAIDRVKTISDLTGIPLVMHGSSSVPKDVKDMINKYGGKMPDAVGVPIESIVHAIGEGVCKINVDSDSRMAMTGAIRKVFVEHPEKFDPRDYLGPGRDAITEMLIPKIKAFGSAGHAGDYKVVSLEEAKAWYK

## COc1ccc(C(CC(=O)N2CCN(c3ccccc3)CC2)c2c(OC)cc(OC)c3c(-c4ccccc4)cc(=O)oc23)cc1 (centres undefined)
[1]
  Potency: inconclusive: 17.8 µM [inhibitor, partial curve, poor fit]
[2]
  Potency: inactive

## O=C(CCO)c1ccc(O)cc1
[1]
  Potency: inconclusive: 7.08 µM [inhibitor, partial curve]

## COc1cc(OC)c2c(c1O)OC(c1ccccc1)CC2=O (centres undefined)
[1]
  Potency: inconclusive: 0.251 µM [inhibitor, full curve]
[3]
  Potency: inconclusive: 7.94 µM [inhibitor, partial curve]

## O=C1c2ccccc2C(=O)N1/N=C/c1ccc(O)c(O)c1O
[3]
  Potency: inconclusive: 0.398 µM [inhibitor, full curve, poor fit]

## Cn1c(=O)c(NCCc2ccccc2)c2c3c(cccc31)C(=O)c1ccccc1-2
[1]
  Potency: inconclusive: 14.1 µM [inhibitor, single point]
[3]
  Potency: inconclusive: 15.8 µM [inhibitor, partial curve, poor fit]
[2]
  Potency: active: 0.794 µM
[4]
  Potency: active: 2.59 µM

## COc1ccc2c(c1)c(=O)oc1cc(OCC(=O)N3CCc4ccccc4C3)ccc12
[1]
  Potency: inconclusive: 15.8 µM [inhibitor, single point]
[5]
  Potency: inconclusive: 25.1 µM [inhibitor, full curve]

## CCC1(CC)NC(=O)N(CC(=O)Nc2sc3c(c2C(N)=O)CCC3)C1=O
[1]
  Potency: inconclusive: 5.62 µM [inhibitor, full curve, poor fit]
[3]
  Potency: inconclusive: 10 µM [inhibitor, partial curve]
[2]
  Potency: inconclusive: 1.12 µM [inhibitor, partial curve, poor fit]
[6]
  Potency: inconclusive: 75.7 µM [inhibitor, partial curve, poor fit]

## O=C(COC(=O)c1cc2c(s1)CCC2)Nc1ccc(F)cc1
[7]
  Potency: inconclusive: 12.6 µM [inhibitor, single point]
[2]
  Potency: inconclusive: 12.6 µM [inhibitor, partial curve, poor fit]
[5]
  Potency: active: 12.6 µM
[6]
  Potency: active: 23.9 µM

## O=C(CSC1CC(=O)N(CC(c2ccccc2)c2ccccc2)C1=O)Nc1ccc(Cl)cc1 (centres undefined)
[1]
  Potency: inconclusive: 10 µM [inhibitor, partial curve, poor fit]
[3]
  Potency: inconclusive: 7.08 µM [inhibitor, full curve, poor fit]

## COc1ccc2nc(C)cc(SCC(=O)N/N=C/c3ccc(O)c(O)c3)c2c1
[7]
  Potency: inconclusive: 12.6 µM [inhibitor, partial curve]
[8]
  Potency: inconclusive: 21.5 µM [inhibitor, partial curve]
[6]
  Potency: active: 23.9 µM

## N=C1C(c2nc3ccccc3s2)=C(O)CN1NC(=O)c1c[nH]c2ccccc12
[1]
  Potency: inactive
[3]
  Potency: inconclusive: 14.1 µM [inhibitor, partial curve]
[2]
  Potency: inactive

## CC(=O)c1ccc(NC(=O)CSc2ccsc2[N+](=O)[O-])cc1
[7]
  Potency: inconclusive: 11.2 µM [inhibitor, partial curve]
[2]
  Potency: inactive
[6]
  Potency: inconclusive: 75.7 µM [inhibitor, partial curve, poor fit]

## Cc1ccc2nc(CSc3nnc(-c4ccco4)o3)cc(=O)n2c1
[1]
  Potency: inactive
[3]
  Potency: inactive

## NN1C(=O)/C(=C\c2ccco2)SC1=S
[3]
  Potency: inconclusive: 28.2 µM [inhibitor, partial curve, poor fit]

## NC(=O)Cn1c(=O)n(Cc2ccco2)c(=O)c2c3c(sc21)CCCCC3
[7]
  Potency: inconclusive: 17.8 µM [inhibitor, partial curve, poor fit]
[2]
  Potency: inconclusive: 7.08 µM [inhibitor, partial curve, poor fit]
[6]
  Potency: inconclusive: 75.7 µM [inhibitor, single point]

## O=C1CCCC(O)=C1N=Nc1ccc(C(=O)O)cc1
[7]
  Potency: inconclusive: 22.4 µM [inhibitor, partial curve, poor fit]
[5]
  Potency: active: 1.41 µM
[8]
  Potency: inconclusive: 24.1 µM [inhibitor, partial curve]

## O=[N+]([O-])c1ccc(/C=C/C2=NN(c3ccccc3)C(c3ccco3)C2)o1 (centres undefined)
[1]
  Potency: inconclusive: 5.62 µM [inhibitor, single point]

## Cc1c(C(=O)OCC2CCCO2)[nH]c2c1C(=O)CC(c1ccco1)C2 (centres undefined)
[1]
  Potency: inconclusive: 5.01 µM [inhibitor, full curve]
[2]
  Potency: inconclusive: 15.8 µM [inhibitor, partial curve, poor fit]

## O=c1ccc2[n+]([O-])c3ccc(O)cc3oc-2c1
[1]
  Potency: inconclusive: 4.47 µM [inhibitor, partial curve, poor fit]
[3]
  Potency: active: 12.6 µM
[2]
  Potency: active: 0.0178 µM

## CCN(CC)c1ccc(-c2nnc(SCC(=O)Nc3ccccc3C#N)n2-c2ccccc2)cc1
[1]
  Potency: inconclusive: 14.1 µM [inhibitor, partial curve, poor fit]
[3]
  Potency: inconclusive: 10 µM [inhibitor, partial curve, poor fit]

## O=C(O)c1cccc(-n2cccc2/C=C/[N+](=O)[O-])c1
[1]
  Potency: inactive
[2]
  Potency: inconclusive: 7.08 µM [inhibitor, partial curve, poor fit]
[6]
  Potency: active: 5.36 µM

## Cc1ccccc1N=C1NC(=O)/C(=C/c2cccn2-c2cccc(C(=O)O)c2)S1
[7]
  Potency: inactive
[2]
  Potency: inconclusive: 0.0794 µM [inhibitor, full curve, poor fit]
[6]
  Potency: active: 26.9 µM

## COc1cc([N+](=O)[O-])cc(/C=N/NC(=O)CC#N)c1O
[1]
  Potency: inactive
[3]
  Potency: inconclusive: 0.0007 µM [inhibitor, full curve]
[2]
  Potency: inconclusive: 15.8 µM [inhibitor, single point]

## Nc1nonc1-c1nc2ccccc2n1CC(=O)N/N=C/c1ccc(-c2cccc(C(=O)O)c2)o1
[7]
  Potency: inactive
[5]
  Potency: active: 14.1 µM
[8]
  Potency: inconclusive: 30.4 µM [inhibitor, single point]

## Cc1c(O)cc2c(c1O)C(=O)CC(c1ccc(O)cc1)O2 (centres undefined)
[7]
  Potency: inactive
[2]
  Potency: inconclusive: 1.78 µM [inhibitor, full curve, poor fit]
[6]
  Potency: inconclusive: 95.3 µM [inhibitor, single point]

## CCOC(=O)c1cc(-c2ccc(N3CCOCC3)cc2)nn1-c1ccccc1C(=O)O
[1]
  Potency: inconclusive: 3.98 µM [inhibitor, single point]
[3]
  Potency: inconclusive: 1.78 µM [inhibitor, full curve, poor fit]
[2]
  Potency: inconclusive: 15.8 µM [inhibitor, partial curve, poor fit]
[5]
  Potency: inconclusive: 2 µM [inhibitor, full curve, poor fit]

## Cc1cccc(C)c1NC(=O)CSc1nnc(-c2ccco2)c(-c2ccco2)n1
[7]
  Potency: inconclusive: 2.82 µM [inhibitor, full curve, poor fit]
[9]
  Potency: inconclusive: 31.6 µM [inhibitor, partial curve]
[10]
  Potency: inconclusive: 200 µM [inhibitor, partial curve]

## O=C1c2cccc3c(Cl)ccc(c23)C(=O)N1O
[1]
  Potency: inactive
[3]
  Potency: inactive
[2]
  Potency: inactive

## Cc1ccc(C(=O)O)cc1-c1ccc(/C=C2/NC(=O)N(c3ccccc3)C2=O)o1
[1]
  Potency: inactive
[3]
  Potency: inconclusive: 11.2 µM [inhibitor, full curve, poor fit]

## O=c1[nH]c(Cc2ccccc2)nc2scc(-c3ccccc3)c12
[1]
  Potency: inactive
[3]
  Potency: inactive

## CC1(CC(=O)N/N=C/c2cc([N+](=O)[O-])c(O)cc2O)OCCO1
[7]
  Potency: inconclusive: 15.8 µM [inhibitor, partial curve]
[2]
  Potency: inconclusive: 14.1 µM [inhibitor, single point]
[6]
  Potency: inconclusive: 84.9 µM [inhibitor, single point]

## O=C1CC(=O)N(Cc2ccco2)C(=O)N1
[7]
  Potency: inactive
[5]
  Potency: inconclusive: 20 µM [inhibitor, full curve]
[11]
  Potency: active: 7.64 µM

## COc1ccc(C(CC(=O)N2CCCCC2)c2c(OC)cc(OC)c3c(-c4ccccc4)cc(=O)oc23)cc1 (centres undefined)
[1]
  Potency: inconclusive: 8.91 µM [inhibitor, single point]
[2]
  Potency: active: 14.1 µM
[6]
  Potency: inconclusive: 84.9 µM [inhibitor, single point]

## Cc1ccc(NC(=O)CN2C(=O)S/C(=C\c3cccn3-c3cccc(C(=O)O)c3)C2=O)c(C)c1
[1]
  Potency: inconclusive: 15.8 µM [inhibitor, single point]
[2]
  Potency: active: 15.8 µM

## N#C/C(=C/c1cccn1-c1cccc(C(=O)O)c1)c1ccc(Cl)cc1
[7]
  Potency: inconclusive: 22.4 µM [inhibitor, partial curve, poor fit]
[6]
  Potency: inconclusive: 84.9 µM [inhibitor, single point]

## COC(=O)c1ccccc1NC(=O)c1noc2c1CCC2
[7]
  Potency: inconclusive: 15.8 µM [inhibitor, partial curve]
[2]
  Potency: inconclusive: 12.6 µM [inhibitor, partial curve, poor fit]
[5]
  Potency: inconclusive: 28.2 µM [inhibitor, partial curve]

## O=C(O)CSc1cc(C(=O)c2ccccc2O)cn2c(=O)c3c4c(sc3nc12)CCCC4
[1]
  Potency: inconclusive: 12.6 µM [inhibitor, single point]
[2]
  Potency: inconclusive: 5.01 µM [inhibitor, partial curve]
[8]
  Potency: inconclusive: 24.1 µM [inhibitor, partial curve]
[6]
  Potency: inconclusive: 84.9 µM [inhibitor, partial curve]

## COc1ccc(OC)c(-c2csc(N(Cc3ccco3)C(=O)c3ccco3)n2)c1
[1]
  Potency: inconclusive: 39.8 µM [inhibitor, partial curve, poor fit]
[3]
  Potency: inconclusive: 31.6 µM [inhibitor, partial curve, poor fit]
